Test results: the supplement of paper PMC12632987
In all, about 4,500 sequences were measured (“median log2 fold change of GCK-ALFA target abundance (FLAG IP / Myc IP barcode read proportion)”: median about 0.078, lowest 2% from about -0.6 on). The list shows a part of the results.

B1: GBRAP_184_5220 (protein)
chain: TTVRRAVEAETAEEAIAKADAVIAEAQAAGKKLELTVFLKNMSLEEIERVMAYLAEKKEAGLVESVTVVVLDERSEEEIDELVAIADKYGIRLVVALPDE
B2: GBRAP_78_6572 (protein)
chain: EVEELVDEAIEKLSKAATLLAKLNTPEAQEILAEVVDALSDLLEAEEEGFDLELLKRALEHVEKAIKLVKKVPEEEYKEILKLLEEAKELLKKAIELVEK
B3: GBRAP_52_5857 (protein)
chain: SSARMRALAEELLALRLAGKEEELEARVKELVATLSEEEILALLEELAALAKEADKEGAEAILDVAELLADEAEEAGFDEDELSYALAEVAAAAYKQLQK
B4: GBRAP_125_3028 (protein)
chain: HMEALAADLGRIARALGLSEGDVAELRENALAHGLKGAMIALALAEGDEELADLLEKLSEEEVAAVVRRLAAELAANPDLTPEEVRALLRRLAREAVAAS
B5: GBRAP_78_6668 (protein)
chain: EVEELVDKAVEELSKAARLALKLPEEHRNELLDLLVDAASYILEAEENGYDLELLKKAAEKLEEAIKLVEELNNEEYKPLLEELKKAKEYLEKAIKLLEK
B6: GBRAP_52_6367 (protein)
chain: MLEEAVEKLEKAVEAVLEGKEEEAEKILREIVENYSDEVILEAAERVAERIKGKTLEEAEAFLETALRLADIGDELGRDDVVLDEIEAIAARTYVEIKAK
B7: GBRAP_160_4188 (protein)
chain: EEEVEKLIKEIKEIAEEAIKLIEGETYEERLVIVRGAFGQIIMLVMESDAVSDEAEDKIAEITDEAVEYLDKNPELTEEEIKKLIKEATEKIIETIKKLS
B8: GBRAP_125_3057 (protein)
chain: SREEAIENLLRLARRLGLSDDDVEELRRIAEAGSVKNTLIAIALALGEEELADALEKLTEEEVIELLKRAAERLEENPELTPEEVKALLLELAEELLAKR

These binders were tested against GABARAP, O95166 (assay: median log2 fold change of GCK-ALFA target abundance (FLAG IP / Myc IP barcode read proportion) (log2 ratio); each designed protein is fused to an ALFA-tag nanobody in HEK293 cells to bring the named protein to FLAG-tagged glucokinase (GCK); Myc marks an untargeted standard; higher = target protein stabilised (more abundant)). Settings: target protein: 3xFLAG-MCP-GCK-ALFA reporter; HEK293 landing pad (RPLP).
GABARAP, O95166, sequence (O95166 whole entry, the tested form may be a part): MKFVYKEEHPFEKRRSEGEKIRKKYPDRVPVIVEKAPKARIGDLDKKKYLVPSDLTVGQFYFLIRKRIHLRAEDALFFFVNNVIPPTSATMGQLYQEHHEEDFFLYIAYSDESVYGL
In short: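 Sequencing of reverse-transcribed, amplified circular RNA barcodes from anti-FLAG and anti-Myc immunoprecipitates provided the readout for an ALFA-nanobody-fused binder library recombined into HEK293 landing-pad cells. Those cells were induced with 2 μg mL^−1 doxycycline, transfected with a plasmid expressing a FLAG-tagged target and a Myc-tagged standard, and lysed after 48 h. Target abundance is the per-binder median log2 ratio of FLAG to Myc barcode read proportions. Only barcodes at a proportion of ≥10^−7 in both replicates and binders with ≥3 barcodes per replicate were kept, with a 10^−6 pseudocount added before the two replicates were pooled.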

Binder	median log2 fold change
B1	-0.216
B2	0.141
B3	-0.305
B4	0.202
B5	-0.37
B6	-0.223
B7	0.0875
B8	0.137
